Test results from PubChem BioAssay AID686979 (National Center for Advancing Translational Sciences (NCATS), 2013).
Several values for one entry are separate records, joined by “and”; a condition that tells them apart may be missing. Equal values may be shown once. Out of some 420,000 compounds screened, about 50,000 (12%) were called active. The inconclusive results got no clear call from the source; some entries with a clear call stand among them for comparison. The call rests on the fitted dose curve; in most records, active means well fitted inhibition curve with a large enough effect; inconclusive means small, poorly fitted or top-dose-only effect; inactive means flat fitted curve, though single readings scatter. Potencies of inconclusive entries are left out as doubtful fits.
On the % scale 0 is the no-effect control and ±100 the full control effect; potency means the concentration at half of the fitted maximal effect; tags describe the fitted curve by direction and shape.

Test: qHTS for Inhibitors of human tyrosyl-DNA phosphodiesterase 1 (TDP1): qHTS in cells in presence of CPT; further: nearly all actives have a fitted effect of over 55% in size
Conditions: chicken DT40 Tdp1-/-;hTDP1 cells + 20 nM CPT, ATP luminescence, 48 h; activity change, negative = growth inhibition: at 46.2 µM (top of the series) unless noted
Method in brief: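 Chicken DT40 Tdp1-/- cells stably complemented with human TDP1 were seeded at 400 cells/well in medium containing 20 nM camptothecin, exposed to pin-transferred compounds, and grown at 37 °C for at least 48 hr. Viability was read as ATP luminescence.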
In the case of `Cc1cc2nc(-c3ccccc3)c(Cc3ccsc3)n2c(C)c1Br`, the Potency is reported as active: 14.6 µM.
With `COc1ccccc1-c1cc2nc(C)c(CCC(=O)Nc3cc(C)ccc3C)c(C)n2n1` the Potency was inconclusive [inhibitor, single point].
With `CCOC(=O)N1CCN(C(=O)CSCc2nc(-c3ccccc3C)oc2C)CC1` the Potency was inconclusive [inhibitor, single point].
For `O=[N+]([O-])c1cc(CN2CCN(c3ccccc3)CC2)c(O)c2ncccc12`, the Potency was active: 2.06 µM.
In the case of `Cc1ccc(-n2ncc3c(NCC(C)C)ncnc32)c(C)c1`, the Potency is reported as active: 23.1 µM.
With `CCc1cccc(NC(=O)c2ccc(CNS(=O)(=O)c3ccc4c(c3)C(C)(C)C(=O)N4C)cc2)c1` the Potency was inconclusive [inhibitor, single point].
In the case of `Cc1cc(C)c(S(=O)(=O)N2CCCC(C(=O)NCCC3=CCCCC3)C2)c(C)c1` (stereo not given), the Potency is reported as inconclusive [inhibitor, single point].
For `Cc1cc(N2CCN(S(=O)(=O)c3ccc(Cl)c(Cl)c3)CC2)c2ccccc2n1`, the Potency was inconclusive [inhibitor, single point].
In the case of `COc1ccc(N2CCN(S(=O)(=O)CC34CCC(CC3=O)C4(C)C)CC2)cc1` (stereo not given), the Potency is reported as “inactive”.
With `Cc1ccc(Nc2nc3nonc3[nH]c2=O)cc1Cl` the Potency was active: 16.4 µM.
With `COc1ccc(CCNS(=O)(=O)c2cn(C)nc2C)cc1OC` the Potency was “inactive”.
In the case of `CC(=O)Nc1ccc(OC(F)(F)Cl)cc1`, the Potency is reported as inconclusive [inhibitor, single point].
For `Oc1ccc2ccccc2c1CN1CC2CCC(CC2)C1`, the Potency was inconclusive [inhibitor, single point].
With `O=C(COC(=O)C1COc2ccccc2O1)c1ccc(F)cc1` (stereo not given) the Potency was “inactive”.
In the case of `Cc1nc(Cl)sc1C(=O)Nc1ccc(Cl)cc1`, the Potency is reported as “inactive”.
In the case of `COC(=O)c1ccccc1-n1cc2c(c1-c1cccc(C)c1)c(=O)n(C)c(=O)n2C`, the Potency is reported as active: 10.3 µM.
With `COc1ccc(CNc2ncc(-c3ccc(F)cc3)n2C)cc1OC` the Potency was inconclusive [inhibitor, single point].
With `COc1ccccc1CNC(=O)c1oc2ccc(S(=O)(=O)N3CCCC3)cc2c1C` the Potency was inconclusive [inhibitor, single point].
For `CC(C)(C)OC(=O)N1CCC(c2c(C(=O)N3CCOCC3)cnn2-c2cccc(F)c2)CC1`, the Potency was “inactive”.
With `Clc1cccc(OCCN2CCN(CCOc3cccc(Cl)c3)CC2)c1` the Potency was active: 2.91 µM.
In the case of `O=C(NC1CCCC1)C(c1ccccn1)N(C(=O)c1csnn1)c1ccccc1Cl` (stereo not given), the Potency is reported as “inactive”.
In the case of `O=C(CN1C(=O)c2cccnc2Oc2ccc(Cl)cc21)NC1CCCCC1`, the activity change, negative = growth inhibition is reported as inconclusive: -31.9% [inhibitor].
In the case of `CC(C)Oc1ccc(C(=O)NC(=S)N2CCOCC2)cc1`, the Potency is reported as inconclusive [inhibitor, single point].
In the case of `Cc1cccc(C)c1NC(=O)C(c1ccccc1)N1CCC2(CC1)OCCO2` (stereo not given), the Potency is reported as “inactive”.
In the case of `S=c1nc[nH]c2c1sc1nc(N3CCOCC3)c3c(c12)CCCC3`, the Potency is reported as inconclusive [inhibitor, single point].
With `O=C(CSc1nc2c(c(=O)[nH]1)CN(Cc1ccc3c(c1)OCO3)CC2)Nc1ccc(F)c(F)c1` the Potency was inconclusive [inhibitor, single point].
With `O=C(Nc1ccc(C(=O)N2CCN(c3ccccc3)CC2)cc1)c1nsc2ccccc12` the Potency was inconclusive [inhibitor, single point].
For `CC(=O)Nc1ccc(NC(=O)C(C)OC(=O)c2cccc(S(=O)(=O)N3CCCCC3)c2)cc1` (stereo not given), the Potency was “inactive”.
For `COc1ccccc1NS(=O)(=O)c1ccc(C(=O)NCc2ccc(S(N)(=O)=O)cc2)cc1`, the Potency was inconclusive [inhibitor, partial curve, poor fit].
With `CCOC(=O)c1cnc2ccc(Cl)cc2c1Nc1ccc(N2CCOCC2)cc1` the Potency was active: 14.6 µM.
For `OC(c1ccc(Cl)cc1)c1ncc(-c2cccc(F)c2)[nH]1` (stereo not given), the Potency was inconclusive [inhibitor, single point].
In the case of `Cc1cccc(NC(=O)CN2CCN(C(=O)c3ccc(-c4nc5ccccc5s4)o3)CC2)c1C`, the Potency is reported as inconclusive [inhibitor, single point].
For `COc1ccc(/C=C/C(=O)NCC2COc3ccccc3O2)c(OC)c1` (stereo not given), the Potency was “inactive”.
For `CCOC(=O)c1c(C)oc2c1c(C(c1cccnc1)N1CCCCC1)c(O)c1ccccc12` (stereo not given), the Potency was inconclusive [inhibitor, single point].
For `O/N=C(\c1ccc(Cl)cc1)c1ncc(C(F)(F)F)cc1Cl`, the Potency was inconclusive [inhibitor, single point].
In the case of `O=C(CC1C(=O)NCCN1Cc1cccc(Oc2ccccc2)c1)NCc1cccnc1` (stereo not given), the Potency is reported as “inactive”.
In the case of `Cc1ccc(S(=O)(=O)c2cn(Cc3ccc(F)cc3)c3cc(N4CCCC4)c(F)cc3c2=O)cc1`, the Potency is reported as inconclusive [inhibitor, single point].
In the case of `CCCN(CCC)Cc1cc(=O)oc2cc3c(cc12)CCC3`, the Potency is reported as inconclusive [inhibitor, single point].
In the case of `O=C(c1cccnc1)N1N=C(C2CCCCC2)CC1(O)C(F)(F)F` (stereo not given), the Potency is reported as active: 6.51 µM.
In the case of `CCOc1ccc(CCNC(=O)c2cc3sc(CC)cc3n2C)cc1OCC`, the Potency is reported as active: 14.6 µM.
For `O=C(c1ccccc1)c1ccc2nc[nH]c2c1`, the Potency was inconclusive [inhibitor, single point].
For `O=C(NNC(=S)NCc1ccco1)c1ccc(Cl)s1`, the Potency was inconclusive [inhibitor, single point].
In the case of `COc1ccc(C2=NS(=O)(=O)N(C)C(C(=O)NCc3ccc4c(c3)OCO4)=C2)cc1OC`, the activity change, negative = growth inhibition is reported as inconclusive: -31% [inhibitor].
With `COc1ccc(S(=O)(=O)N2CC=C(C(=O)NC3CCCC3)CC2)cc1` the Potency was inconclusive [inhibitor, single point].
For `CCCCNCc1cccn1-c1ccccc1`, the Potency was “inactive”.
For `CCc1ccccc1NC(=O)C(=O)NCCc1sc(-c2cccc(F)c2)nc1C`, the Potency was inconclusive [inhibitor, single point].
In the case of `Cc1ccc(CNC(=O)c2ccc(-c3nc(CS(=O)(=O)c4ccc(C)cc4)c(C)o3)cc2)cc1`, the Potency is reported as active: 13 µM.
In the case of `Cc1c(C(=O)Nc2cccc(Cl)c2)oc2ccc(S(=O)(=O)N3CCC4(CC3)OCCO4)cc12`, the Potency is reported as active: 9.2 µM.
In the case of `Cc1cc(C)cc(OCCNC(=O)c2cc(S(=O)(=O)N3CCOCC3)ccc2F)c1`, the Potency is reported as inconclusive [inhibitor, single point].
With `Cc1cnc2ccccc2c1/C=C/c1ccc(N)cc1` the Potency was inconclusive [inhibitor, single point].
For `O=C(NCc1ccccc1)C(c1ccc(C(F)(F)F)cc1)n1c(=O)c(-c2ccco2)nc2ccccc21` (stereo not given), the Potency was inconclusive [inhibitor, single point].
For `Cc1ccccc1NC(=S)NC(=O)/C=C/c1ccco1`, the Potency was “inactive”.
In the case of `COc1ccc2[nH]c(O)c(N=NC(=O)Cc3cccs3)c2c1`, the Potency is reported as inconclusive [inhibitor, single point].
With `CSCCC(C(=O)Nc1c(C)cccc1C)N(Cc1ccccc1)Cc1ccccc1` (stereo not given) the Potency was inconclusive [inhibitor, single point].
In the case of `COc1cc(-c2noc(C)c2-c2ccc3[nH]ccc3c2)cc(OC)c1OC`, the Potency is reported as active: 631 nM and active: 1.46 µM.
In the case of `CCOc1c(Br)cc(CNC2CCCCCCC2)cc1OC`, the Potency is reported as active: 20.6 µM.
In the case of `CC(O)(CS(=O)(=O)Cc1ccccc1)c1ccc(Cl)cc1` (stereo not given), the Potency is reported as “inactive”.
For `Cc1[nH]c2ccccc2c1SCCNC(=O)c1ccccc1F`, the Potency was inconclusive [inhibitor, single point].
In the case of `CCN(c1ccccc1)S(=O)(=O)c1ccc(N)c(OC)c1`, the Potency is reported as inconclusive [inhibitor, full curve, poor fit].
In the case of `Cc1ccc(NC(=O)COC(=O)c2ccc3c(c2)NC(=O)C2CCCN32)cc1` (stereo not given), the Potency is reported as active: 16.4 µM.
For `C[C@@]12C(=O)Nc3ccccc3C(=O)N1[C@H]1c3cc(Cl)ccc3OC[C@@H]1[C@@H]2c1ccccc1`, the Potency was inconclusive [inhibitor, single point].
For `Cc1c(OCC(=O)C(C)(C)C)ccc2c(-c3ccccc3)cc(=O)oc12`, the Potency was inconclusive [inhibitor, single point].
In the case of `CC1CCN(c2ccc3c(c2)S(=O)(=O)c2cccc(C(=O)NC4CC4)c2C3=O)CC1`, the Potency is reported as inconclusive [inhibitor, single point].
For `COc1ccc2[nH]c3c(N4CC(C)OC(C)C4)ncnc3c2c1` (stereo not given), the Potency was inconclusive [inhibitor, single point].
For `Cc1ccc(C2C(C#N)=C(N)Oc3nc(-c4ccccc4)[nH]c32)o1` (stereo not given), the Potency was inconclusive [inhibitor, single point].
In the case of `O=C(N/N=C/c1cccs1)c1ccc2c(c1)OCO2`, the Potency is reported as “inactive”.
In the case of `CC(C)NC(=O)C1C(c2ccc(C(F)(F)F)cc2)=Nc2ccccc2N1C(=O)c1cc2ccccc2[nH]1` (stereo not given), the Potency is reported as inconclusive [inhibitor, single point].
In the case of `CCN(CC)S(=O)(=O)c1cc(NC(=O)C(C)N2CCc3ccccc32)ccc1C` (stereo not given), the Potency is reported as inconclusive [inhibitor, single point].
In the case of `CC1=C/C(=C/N(C)c2ccccc2)C(=O)S1`, the Potency is reported as active: 20.6 µM.
For `CCN(CC)S(=O)(=O)c1cc(NC(=O)c2ccc(-n3cncn3)c([N+](=O)[O-])c2)ccc1C`, the Potency was inconclusive [inhibitor, single point].
